Reference: patent publication US20230235005A1 (INHIBRX, published 2023)

Target: T1, Histidine-tagged CD25 (UniProt P01589 22-217, limits assumed)
T1 construct: Immobilized in Biolayer Interferometry (ForteBio); not shown: histidine tag
T1 sequence (looked up): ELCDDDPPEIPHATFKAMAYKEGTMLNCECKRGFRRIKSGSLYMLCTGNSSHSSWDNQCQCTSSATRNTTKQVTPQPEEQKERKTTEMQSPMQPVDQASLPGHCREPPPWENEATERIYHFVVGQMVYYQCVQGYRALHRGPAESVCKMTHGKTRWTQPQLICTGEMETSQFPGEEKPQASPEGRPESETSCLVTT
Assay: Biolayer Interferometry (ForteBio), immobilized His-tagged CD25
Experimental: Polypeptides comprising a modified IL-2 fused to the C-terminus of a PD-1 binding VHH and control polypeptides were tested for binding to CD25 using Biolayer Interferometry (ForteBio).

- binding result: no binding (tested: 300 nM)
B1: WT IL-15 (control polypeptide of Example 24) (ligand)
chain: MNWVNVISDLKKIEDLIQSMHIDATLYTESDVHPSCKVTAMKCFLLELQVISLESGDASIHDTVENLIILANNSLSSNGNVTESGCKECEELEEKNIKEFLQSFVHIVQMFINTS
notes: also called IL-15 WT
